# Tested on: Balb/c mice
# Experiment: Open space anxiety test: elevated platform with steep slopes
# Settings: diazepam 0.5, 1 and 3 mg/kg, amphetamine 5 and 10 mg/kg, listed as Diazepam
compound,measurement,value
CN1C(=O)CN=C(c2ccccc2)c2cc(Cl)ccc21 [diazepam],total number of crossings on the surface of the platform (motor activity),increase dose-dependently
